We go through 72 sequences from article PMC10726135.

This is one part of the list. At the low end of the ranking, values are background and their order means little. The protein was read in a cell extract, so binding may be indirect.

This experiment concerns the target T1, HNF4alpha8 (COS-7 nuclear extract) (UniProt P41235-5).
T1 sequence: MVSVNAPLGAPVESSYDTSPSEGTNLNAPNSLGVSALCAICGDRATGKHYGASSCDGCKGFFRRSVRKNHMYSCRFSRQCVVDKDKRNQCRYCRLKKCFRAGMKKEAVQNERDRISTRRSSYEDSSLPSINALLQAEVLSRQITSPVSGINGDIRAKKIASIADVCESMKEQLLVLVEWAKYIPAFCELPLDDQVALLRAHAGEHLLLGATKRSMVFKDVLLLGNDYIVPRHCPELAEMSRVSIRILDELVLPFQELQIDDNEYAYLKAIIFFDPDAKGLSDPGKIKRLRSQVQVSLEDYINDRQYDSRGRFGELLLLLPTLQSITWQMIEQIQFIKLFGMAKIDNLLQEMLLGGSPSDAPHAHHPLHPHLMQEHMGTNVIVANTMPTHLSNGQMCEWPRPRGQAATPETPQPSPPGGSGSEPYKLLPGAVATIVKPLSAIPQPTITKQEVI
Description: protein-binding microarray. The conditions noted are these: COS-7 nuclear extract on double-stranded Agilent 4x180k PBM; binding buffer, salt, pH and temperature not given; high values mean tight binding; double strand, one strand shown; sequences stand for … in …GCCTAGGGAGATTAGAGTATCGGTCGA
For CTGGCCCACTGTTCTCTCTAGAGAGAACAG, the binding signal (log2 normalized intensity) was -1.31. The value for GCAAACATTTCACTTTGCTCCCTCCTTCAG was 0.734; that for CTGCCTTCCTGCTCATGCAGCTGCTGCCCA was -1.29. In the case of TTTGCCTGGTGATCTTTGTTAGACCCTTAT, the binding signal (log2 normalized intensity) is 2.77. For the sequence TAGTAAATATTAGGCAAGCTAAGATGAGGG, the binding signal (log2 normalized intensity) was -1.11. Take TCATGATGGGAAGCCTCAGGAGTTGGAGGA: the binding signal (log2 normalized intensity) was -1.31. As to GGGGAGCAGGCAGAGGAACAGAGGGGTCTG, the binding signal (log2 normalized intensity) was -1.12. In the case of GATATTTTGAGGGCTCAAAGGTTACCACCC it was 5.08; in that of GAAAAGAAATGTAGTGACAGAAGGGAGAGT, -1.37; in that of CGACTGGGCCAGGAGCAGGAGCAGAAGCAG, -1.25. Consider GGCTTTATCTGTGAGAATCCCAGCTCGTGG, for which the binding signal (log2 normalized intensity) was -1.29. The value for TTATCTGAATCTGGAATCACGTTCGCCTAA was -1.21; that for TTTCTGAACACTCCAAGGTGTCCAGCTTAG was -1.23.

For the sequence AGGTGCAAAGTACATATTTACTTACCTTTT, the binding signal (log2 normalized intensity) was determined as 3.68. The value for CCTGAAAGGCCAAGCCAGTTTCCAGGGAGG was -1.2. In the case of AATGATACCAACAGGCTTAACATAAAGGGT it was -1.19; in that of GTCAGGGTTCTCAGACCACCAGCTGCTTCG, -1.34; in that of AGCAAGAATGTAAATAGCTAGGTACTTTGA, 1.94.

In the case of ATATTGCAGTGTAGATTAAATCCTCGAAGA, the binding signal (log2 normalized intensity) is -1.13.

As to GATTTCTAGTTAATATCTAAGATGTAGCTG, the binding signal (log2 normalized intensity) was 0.125. The value for TACTGGATATAGCCAGATGTCCTTTGAAGA was 1.41; that for AATCTGGCTAATGCATGTCCCTCCTCAACC was 0.982; that for GGTGGACATGGTTCACTGATTACTGGATGT was 0.982. GACAAAGTGTCACAAACTATCAGTGAAGAG: the binding signal (log2 normalized intensity) was -0.99. As to ATTCTCTTATCTACTTTAAGATTTGACCCT, the binding signal (log2 normalized intensity) worked out at 5.76. As to CCCAGAGGTCACACTGATACAGCATGGCCC, the binding signal (log2 normalized intensity) is -0.36. As for GGTTCCCCTTCCCCCAACAGGGCTCCTGTT, the binding signal (log2 normalized intensity) came to 3.4. In the case of GCCTCAGATTAATGTCAGCCTGCTCAGGGA, the binding signal (log2 normalized intensity) was -1.53.

As to CCGCCTCCACACCCCAGCCTGCCCTCCTAG, the binding signal (log2 normalized intensity) was 3.47. In the case of GGCAAAATGGCATATCTAGGATCACGCCAT it was -1.43. The value for ACTGCAGAAACTCTGCAGTAACTGTCATGG was 0.255; that for ATGATCAAAGGTTAGTCTTAGGACCACATG was 3.21. For the sequence TGAGTGCTTCTTGAATGAAGGAACAGGTTC, the binding signal (log2 normalized intensity) was 0.579. As to ACAGAAATCATGTAGCCAGATAAGAGCTAT, the binding signal (log2 normalized intensity) was -1.36.

As to AGCCCAGAGACAGTGGAATCTACAGAATTC, the binding signal (log2 normalized intensity) was -1.35. Turning to CGCCCAGTCCCGCCGCTTCCCCACCCCCTC, the binding signal (log2 normalized intensity) stood at 5.63. With GCGGGGAGTCTCCTGGGTAATCACCAAACT, the binding signal (log2 normalized intensity) is -1.4. Regarding TGTGACCTCCAACTATTGCTCAGCAGGGAG, the binding signal (log2 normalized intensity) was -1.26. In the case of AGGCAGCTAGGCAGGCTCAGAACTACCAAT it was -1.41; in that of CTGCAATCAGAGCTGGATGTGAGTTATGAC, 0.899. The value for CTGAACCTCTGTCTCTCAGGCACAGCTCGA was -1.27; that for AGTTTGCTGTCTTGACTTGGTTCGGGTTTT was 1.69; that for ACCTCCCGTGCCCCCTTTTGCTTTCCGTTA was 2.36. Turning to AGTGTCTCTACTGTCCATCTTTTGCCCCTC, the binding signal (log2 normalized intensity) amounted to 4.79. The value for CTCAGAAATCCCCAAACTTAAAAGAAGCTA was -1.27; that for ATTGGGATGGAGTAACTTGCTAAGTATAAA was -1.12; that for TAGAGTGGAGTGAAGTAAGAGTAGCAGAAG was -1.43. In the case of GAACTTTGTTTGTGTTTCCCTCCCTGGTAT it was 3.26; in that of CCCCAGAGGAAGACATCATATTTGTTATAT, 0.792. The value for ACACAGGAAGGGGGATGTCTTTTAGAAGCT was -1.25; that for AAGATAATGGGTCCGAAGGTCAGCTGACCA was 5.57; that for AGAGCCCCCTTGATGCATCAGACCCCTGAG was 4.42. Turning to CATAAAACATTCTATTCTATCTGTATTCTG, the binding signal (log2 normalized intensity) amounted to 0.74. Turning to GTTTTTGATTTTGCAGGCTGATAGGCAGAA, the binding signal (log2 normalized intensity) was -0.169. For TTCCCTTTATTTAGCCTCACTAAGATAGGG, the binding signal (log2 normalized intensity) was 0.286. In the case of GTTAATTATAATCGCAGAATAAACGCTGAA it was -1.32; in that of GGCACCAACACTTCCCAATCAGAAACCGGG, -1.35; in that of TGATTACACAGGCCTTATAGGGCATACCCT, 0.136.

Take CCTTGCACTATTGACCCAGTGAAACAACAC: the binding signal (log2 normalized intensity) was 2.28. In the case of GCCAAACTCTCACTCTACTCTCTTTGGAGT it was -0.0021; in that of TTGTGGCATCAGGGTCCACAAGGGTTTAAA, 2.52.

As to TAGACTTTGCTTTCTTGGAGGTTAACATTT, the binding signal (log2 normalized intensity) came out at 2.31. The value for CATGCTCTTGGAATGTTGAACCTTTCTTTG was 3.19; that for TTTATAATCCTAGCTTGGTTTTTCTGGGAC was 0.942; that for ACTGTCTGCTATGTGTATATGAGTGTATAG was 1.74.

As to AAGGTACTTATCAGAGGAAATTCAGATCAA, the binding signal (log2 normalized intensity) is -1.11. For the sequence ACGAAGGCATTCTTAACAAAACCTGTTTAG, the binding signal (log2 normalized intensity) is -1.38. Consider CAATAATCTTTGCCCTTGAAGATACAGTTA, for which the binding signal (log2 normalized intensity) amounted to 1.9.

As to CCTTGAAACCCCTCCTTACAGTGCCCTCTG, the binding signal (log2 normalized intensity) was 4.3. As for TTTTTTCTTATCTCACTGGATGTGTACCTC, the binding signal (log2 normalized intensity) amounted to 2.4.

Take CCCACAGGGGTAGAAGCTGAGCAGCAATCA: the binding signal (log2 normalized intensity) was -1.37. As for GATGGCTCTGCAGAGGCTTCCTCTTTGGTG, the binding signal (log2 normalized intensity) was -1.32.
